Measurements published in the supplement of paper PMC9446081.
In all, about 39,000 compounds went through this assay and about 220 (0.56%) showed activity. Some of the results follow.

These compounds were tested on Escherichia coli K-12 BW25113 (assay: relative growth (OD600 normalised to plate interquartile mean) (fraction); higher = less growth inhibition, active = 0.2 or less). Settings: 50 µM; LB; incubation time: overnight (16-24 h).
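Note: static incubation at 37 °C against the wild-type strain, values averaged over two biological replicates.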

Row | SMILES | relative growth
1 | C[C@@H]1CN([C@H](C)CO)C(=O)c2cccc(NC(=O)CCCCCC(=O)Nc3ccccc3N)c2O[C@@H]1CN(C)Cc1ccc(Cl)c(Cl)c1 | inactive: 0.986
2 | C[C@@H]1CCCCO[C@H](CN(C)CC2CCCCC2)[C@H](C)CN([C@H](C)CO)C(=O)c2cc(NC(=O)Nc3ccc(C(F)(F)F)cc3)ccc2O1 | inactive: 0.985
3 | O=C(O)CCCN1C(=O)c2cccc3cccc(c23)C1=O | inactive: 1.1
4 | C[C@@H]1CN([C@H](C)CO)C(=O)c2cc(NC(=O)Nc3ccccc3)ccc2O[C@@H](C)CCCCO[C@@H]1CN(C)Cc1ccc(Cl)c(Cl)c1 | inactive: 1
5 | COc1ccc(S(=O)(=O)Nc2ccc3c(c2)CC(=O)N([C@H](C)CO)C[C@H](C)[C@H](CN(C)Cc2ccc(C(=O)O)cc2)O3)cc1 | inactive: 1.02
6 | COc1ccc(CN(C)C[C@H]2OCCCC[C@H](C)Oc3ccc(NC(=O)NC4CCCCC4)cc3C(=O)N([C@H](C)CO)C[C@H]2C)cc1 | inactive: 0.981
7 | C[C@@H]1CN([C@@H](C)CO)C(=O)CCCn2cc(nn2)CO[C@H]1CN(C)C(=O)Nc1cccc(C(F)(F)F)c1 | inactive: 1.01
8 | C[C@@H]1CCCCO[C@H](CN(C)S(=O)(=O)c2ccc(F)cc2)[C@@H](C)CN([C@@H](C)CO)C(=O)c2cc(NS(=O)(=O)c3cn(C)cn3)ccc2O1 | inactive: 0.996
9 | COCC#Cc1ccc([C@@H]2[C@@H](CO)N3C(=O)CN(C(=O)c4ccncc4)C[C@H]23)cc1 | inactive: 1.02
10 | C[C@H](CO)N1C[C@H](C)[C@@H](CN(C)S(=O)(=O)c2cn(C)cn2)Oc2ccc(NC(=O)Cc3cn(C)c4ccccc34)cc2CC1=O | inactive: 0.987
11 | CC(=O)OC1CC2CCC3C(CCC4(C)C3CC([N+]3(C)CCCCC3)C4OC(C)=O)C2(C)CC1N1CCCCC1.[Br-] (stereo unspecified) | inactive: 1.03
12 | O=C(O)C1CSCN1 (stereo unspecified) | inactive: 0.94
13 | COc1ccc(C[C@H](N)C(=O)N[C@H]2[C@@H](O)[C@H](n3cnc4c(N(C)C)ncnc43)O[C@@H]2CO)cc1 | inactive: 0.472
14 | C[C@@H]1CN([C@@H](C)CO)S(=O)(=O)c2ccc(Br)cc2O[C@H]1CN(C)S(=O)(=O)c1ccc(F)cc1 | inactive: 1.02
15 | C[C@@H]1CCCCO[C@H](CN(C)C(=O)NC2CCCCC2)[C@H](C)CN([C@H](C)CO)C(=O)c2cc(NC(=O)c3ccccc3)ccc2O1 | inactive: 0.999
16 | O=C(NCC(F)(F)F)[C@@H]1c2ccccc2C(=O)N(Cc2cc(C(F)(F)F)cc(C(F)(F)F)c2)[C@H]1c1ccc(CO)cc1 | inactive: 0.928
17 | C[C@H](CO)N1C[C@H](C)[C@@H](CN(C)S(C)(=O)=O)Oc2ccc(NC(=O)Cc3ccccc3)cc2C1=O | inactive: 0.98
18 | COc1ccc(CN(C)C[C@@H]2OCCCC[C@H](C)Oc3ccc(NC(=O)c4ccncc4)cc3C(=O)N([C@H](C)CO)C[C@H]2C)cc1 | inactive: 1.01
19 | C[C@H](CO)N1C[C@H](C)[C@@H](CN(C)C(=O)c2ccccn2)Oc2cc(Br)ccc2S1(=O)=O | inactive: 1.01
20 | COc1ccc(NC(=O)Nc2ccc3c(c2)C(=O)N([C@H](C)CO)C[C@H](C)[C@H](CN(C)S(=O)(=O)c2ccc(C)cc2)OCCCC[C@H](C)O3)cc1 | inactive: 1.03
21 | CC[C@@H](O[Si](C#C[Si](C(C)C)(C(C)C)C(C)C)(C(C)C)C(C)C)c1cn([C@H](CO)Cc2ccccc2)nn1 | inactive: 0.989

Row | SMILES | relative growth
22 | C[C@H]1CN([C@@H](C)CO)C(=O)Cc2cc(NC(=O)NC3CCCCC3)ccc2O[C@H]1CN(C)Cc1ccc(-c2ccccc2)cc1 | inactive: 0.994
23 | Cc1ccc(S(=O)(=O)Nc2ccc3c(c2)C(=O)N([C@H](C)CO)C[C@@H](C)[C@H](CN(C)CC2CCCCC2)OCCCC[C@@H](C)O3)cc1 | inactive: 0.981
24 | C[C@@H]1CN([C@@H](C)CO)C(=O)c2cccc(NC(=O)Nc3ccc4c(c3)OCO4)c2O[C@@H]1CN(C)C(=O)Nc1cccc2ccccc12 | inactive: 0.941
25 | CO[C@H]1CN(C)C(=O)c2cc(NC(=O)NC(C)C)ccc2OC[C@H](C)N(Cc2ccc(-c3ccccn3)cc2)C[C@H]1C | inactive: 1.01
26 | CO[C@@H](CN(C)C(=O)c1ccccc1F)[C@@H](C)CN([C@H](C)CO)S(=O)(=O)c1ccc(Cl)cc1 | inactive: 0.985
27 | CN(C)c1nc(SCC(N)=O)nc(N(C)C)n1 | inactive: 0.995
28 | O=C(CCCCCCC(=O)Nc1ccc([C@H]2O[C@@H](CSc3ccncc3)C[C@@H](c3ccccc3)O2)cc1)NO | inactive: 1.02
29 | CC(C)(CN)CN1CCCCCC1 | inactive: 1.03
30 | COc1ccc(S(=O)(=O)N(C)C[C@@H]2OCCCC[C@H](C)Oc3ccc(NC(=O)CCC(F)(F)F)cc3C(=O)N([C@@H](C)CO)C[C@H]2C)cc1 | inactive: 1.03
31 | CC(C)C#Cc1cnc2c(c1)C(=O)N([C@H](C)CO)C[C@@H](C)[C@H](CN(C)S(=O)(=O)c1cn(C)cn1)O2 | inactive: 1.01
32 | COc1ccc(S(=O)(=O)N(C)C[C@H]2Oc3ccc(NC(=O)Cc4ccccc4)cc3CC(=O)N([C@H](C)CO)C[C@@H]2C)cc1 | inactive: 1.02
33 | C[C@H](CO)N1C[C@H](C)[C@@H](CN(C)S(=O)(=O)c2ccc(F)cc2)Oc2ccc(NC(=O)Cc3ccccc3)cc2CC1=O | inactive: 1
34 | COc1ccc(S(=O)(=O)N(C)C[C@H]2Oc3c(NC(=O)NC(C)C)cccc3C(=O)N([C@@H](C)CO)C[C@@H]2C)cc1 | inactive: 1.01
35 | Cc1noc(C)c1NC(=O)N(C)C[C@H]1Oc2ccc(NS(=O)(=O)c3cn(C)cn3)cc2CC(=O)N([C@@H](C)CO)C[C@H]1C | inactive: 0.977
36 | C[N+](C)(C)CCCCNC(=O)[C@@H]1C[C@@H]2C(=O)N[C@@H](CCCC[N+](C)(C)C)C(=O)N2[C@@H]1c1ccc(O)cc1 | inactive: 1.01
37 | C[C@H](CO)N1C[C@H](C)[C@@H](CN(C)CC2CC2)Oc2c(NS(=O)(=O)c3cn(C)cn3)cccc2C1=O | inactive: 0.999
38 | COC1CNC1 | inactive: 0.968
39 | C[C@@H]1CCCCO[C@@H](CN(C)C(=O)Nc2ccc(C(F)(F)F)cc2)[C@H](C)CN([C@@H](C)CO)C(=O)c2cc(NC(=O)c3ccncc3)ccc2O1 | inactive: 0.925
40 | CCCN(C)C[C@@H]1OCCCC[C@@H](C)Oc2ccc(NC(=O)CCC(F)(F)F)cc2C(=O)N([C@H](C)CO)C[C@@H]1C | inactive: 1
41 | CCS(=O)(=O)N1CCN(C[C@@H](C)O)CC1 | inactive: 0.984
42 | COCC(=O)N(C)C[C@@H]1Oc2cc(C#Cc3ccccc3)ccc2S(=O)(=O)N([C@@H](C)CO)C[C@@H]1C | inactive: 1.06

Row | SMILES | relative growth
43 | C[C@H]1CCCCO[C@@H](CN(C)Cc2ccccc2)[C@@H](C)CN([C@@H](C)CO)C(=O)c2cc(NC(=O)Cc3ccccc3)ccc2O1 | inactive: 0.988
44 | COc1cccc(S(=O)(=O)Nc2ccc3c(c2)OC[C@@H](C)N(C(=O)Cc2cccnc2)C[C@@H](C)[C@@H](OC)CN(C)C3=O)c1 | inactive: 1
45 | C[C@H](CO)N1C[C@H](C)[C@H](CN(C)C(=O)Nc2ccc(F)cc2)OCCCC[C@H](C)Oc2ccc(NC(=O)C3CCOCC3)cc2C1=O | inactive: 0.981
46 | C[C@@H]1CN([C@H](C)CO)C(=O)Cc2cc(NC(=O)CCN3CCOCC3)ccc2O[C@@H]1CN(C)C(=O)Nc1ccc(F)cc1 | inactive: 1.05
47 | COc1cccc(-c2ccc3c(c2)O[C@@H](CN(C)C(=O)C2CCOCC2)[C@@H](C)CN([C@H](C)CO)S3(=O)=O)c1 | inactive: 0.972
48 | C[C@H]1CN([C@@H](C)CO)C(=O)c2cc(NC(=O)c3ccncc3)ccc2O[C@H]1CN(C)S(=O)(=O)c1ccccc1 | inactive: 1.01
49 | C[C@@H]1CN([C@@H](C)CO)C(=O)c2cc(NS(=O)(=O)c3ccccc3)ccc2O[C@H]1CN(C)Cc1ccc(Cl)c(Cl)c1 | inactive: 1.01
50 | C[C@H](O)C#Cc1ccc2c(c1)O[C@H](CN(C)C(=O)Cc1ccccn1)[C@@H](C)CN([C@@H](C)CO)S2(=O)=O | inactive: 1.01
51 | C[C@@H]1CN([C@@H](C)CO)S(=O)(=O)c2ccc(C#Cc3ccccc3F)cc2O[C@H]1CN(C)C(=O)c1ccc2c(c1)OCO2 | inactive: 1.03
52 | CC(=O)N[C@@H]1CC[C@H](CCNC(=O)C2CC2)O[C@H]1CO | inactive: 0.967
53 | C[C@@H]1CN([C@H](C)CO)C(=O)c2cc(NS(=O)(=O)c3ccc(Cl)cc3)ccc2O[C@@H](C)CCCCO[C@H]1CN(C)Cc1ccc2c(c1)OCO2 | inactive: 0.975
54 | CC(C)NC(=O)N(C)C[C@@H]1Oc2ccc(NS(=O)(=O)c3cccs3)cc2CC(=O)N([C@H](C)CO)C[C@H]1C | inactive: 1
55 | COc1ccc(NC(=O)Nc2ccc3c(c2)C(=O)N([C@@H](C)CO)C[C@@H](C)[C@H](CN(C)Cc2ccc(C(F)(F)F)cc2)O3)cc1 | inactive: 1.06
56 | COCC(=O)N1c2ccccc2C[C@H]1C(N)=O | inactive: 1
57 | C[C@@H]1CN([C@H](C)CO)C(=O)Cc2cc(NC(=O)CCCCCC(=O)Nc3ccccc3N)ccc2O[C@H]1CN(C)Cc1ccccc1 | inactive: 0.988
58 | Cc1ccc(S(=O)(=O)N(C)C[C@H]2Oc3c(NC(=O)c4cc(C)nn4C)cccc3C(=O)N([C@H](C)CO)C[C@H]2C)cc1 | inactive: 0.997
59 | N[C@H](CSCSC[C@H](N)C(=O)O)C(=O)O | inactive: 1.02
60 | NCC[C@@H]1CC[C@@H](NC(=O)Cc2ccncc2)[C@@H](CO)O1 | inactive: 0.994
61 | CN1CCN(C(=O)C[C@H]2CC[C@@H]3[C@@H](COc4ccc(NC(=O)c5cccs5)cc4C(=O)N3C)O2)CC1 | inactive: 1
